Assay results published in article PMC5708675.
No constants are given. Whether binding was seen depends on the method and setting. In cells and extracts the contact can be indirect. Some entries that bind do so weakly or less than the wild type.

The chains behind the UniProt entries cited, without tags or fusion partners.
UniProt P40763: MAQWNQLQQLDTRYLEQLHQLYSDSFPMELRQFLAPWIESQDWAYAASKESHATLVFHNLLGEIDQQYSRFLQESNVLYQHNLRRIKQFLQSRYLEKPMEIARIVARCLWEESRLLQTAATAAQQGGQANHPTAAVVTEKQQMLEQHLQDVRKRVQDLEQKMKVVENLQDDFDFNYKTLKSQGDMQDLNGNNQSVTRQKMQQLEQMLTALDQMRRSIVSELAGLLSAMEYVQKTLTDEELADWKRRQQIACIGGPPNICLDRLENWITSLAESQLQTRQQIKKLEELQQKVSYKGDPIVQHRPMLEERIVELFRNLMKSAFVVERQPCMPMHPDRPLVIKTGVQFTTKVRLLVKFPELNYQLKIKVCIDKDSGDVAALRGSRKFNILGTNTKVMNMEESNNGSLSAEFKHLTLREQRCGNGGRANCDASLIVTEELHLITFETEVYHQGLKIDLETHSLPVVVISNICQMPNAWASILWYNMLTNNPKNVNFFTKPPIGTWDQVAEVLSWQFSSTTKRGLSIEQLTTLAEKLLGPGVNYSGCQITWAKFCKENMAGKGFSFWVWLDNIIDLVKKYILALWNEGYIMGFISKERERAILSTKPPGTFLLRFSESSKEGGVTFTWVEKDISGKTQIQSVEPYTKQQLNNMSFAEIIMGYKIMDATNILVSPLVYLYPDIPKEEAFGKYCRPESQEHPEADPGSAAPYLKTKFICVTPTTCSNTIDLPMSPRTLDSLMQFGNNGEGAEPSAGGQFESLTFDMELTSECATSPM

Legend:
[1] = target: Signal transducer and activator of transcription 3 (Stat3) (human (endogenous in T24 cells and bladder tissue)) (UniProt P40763); assay: co-IP; nuclear fraction (NE-PER kit) of IL-6 stimulated T24 cells; IP with anti-Stat3 antibody, immunoblot for Blcap
[2] = target: Signal transducer and activator of transcription 3 (Stat3) (human (endogenous in T24 cells and bladder tissue)) (UniProt P40763); assay: proximity ligation; Duolink in situ PLA on FFPE bladder cancer tissue sections with strong nuclear expression of Blcap and Stat3; rabbit anti-Blcap and mouse anti-Stat3 primary antibodies
[3] = target: Signal transducer and activator of transcription 3 (Stat3) (human (endogenous in T24 cells and bladder tissue)) (UniProt P40763); assay: condition: only cytoplasmic fraction of IL-6 stimulated T24 cells; co-IP; cytoplasmic fraction (NE-PER kit) of IL-6 stimulated T24 cells; IP with anti-Stat3 antibody, immunoblot for Blcap
[4] = target: Signal transducer and activator of transcription 3 (Stat3) (human (endogenous in T24 cells and bladder tissue)) (UniProt P40763); assay: condition: only in samples with cytoplasmic, but not nuclear, expression of Blcap; proximity ligation; Duolink in situ PLA on an FFPE bladder tissue section with cytoplasmic, but not nuclear, expression of Blcap
[5] = target: Signal transducer and activator of transcription 3 (Stat3) (human (endogenous in T24 cells and bladder tissue)) (UniProt P40763); assay: co-IP; T24 cell lysates, cells stimulated or not with IL-6 (20 ng/ml, 6 h); IP with anti-Stat3 antibody on Protein G-Dynabeads, immunoblot for Blcap; lysis buffer 25 mM Tris, 150 mM NaCl, 1 mM EDTA, 1% NP-40, 5% glycerol, pH 7.4

binding [1]: binds | binding [2]: binds | binding [3]: no binding | binding [4]: no binding | binding [5]: binds
B1: Bladder Cancer Associated Protein (Blcap) (protein, UniProt P62952 1-87)
chain: MYCLQWLLPVLLIPKPLNPALWFSHSMFMGFYLLSFLLERKPCTICALVFLAALFLICYSCWGNCFLYHCSDSPLPESAHDPGVVGT
